Test results: the supplement of paper PMC3334620
Whole data set: some 33,000 sequences, median “E-score (-0.5 to 0.5)” near -0.016, cut for the highest 2% near 0.31. This is one part of the list.

Molecular target: Cst6 (UniProt P40535)
Experiment: PBM E-score (8-mer binding enrichment) (E-score (-0.5 to 0.5)); higher = stronger / more preferred TF binding; most listed sequences are background and not binding sites
Conditions: protein concentration: 200 nM; construct: GST-DNA-binding domain
Procedure: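 Universal 'all 10-mer' protein binding microarrays (Agilent AMADID 015681) probed with GST-tagged S. cerevisiae TFs (full-length or DBD) made by in vitro transcription/translation (PURExpress), about 100-200 nM. Bound TF was detected with fluorescent anti-GST. Each ungapped 8-mer (which stands for itself and its reverse complement) is scored by the PBM enrichment score (E-score), a modified Wilcoxon-Mann-Whitney statistic from -0.5 to +0.5, computed with the Universal PBM Analysis Suite. Scale: above 0.35 generally sequence-specific binding.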

Sequence	PBM E-score
CCTCACAA	0.0405
TAAAAATA	0.295
ATGAAGTA	0.162
AGTTCAGC	-0.244
CGATTGGA	-0.125
GTCGTCAA	0.147
GAATATAC	0.0265
ACATATAA	0.274
GTTAGCCA	-0.0273
AACTACGT	0.208
ATTACAGG	0.0946
ATGACAGA	0.243
ATCTAAGA	0.0804
ACGTAACA	0.386
GGACCGAA	-0.0143
AAGGGAAC	-0.304
ACGGCCGT	0.162
CTTGCGGA	-0.139
ATGTGTGC	-0.0723
CATAACGA	0.0358
TAGTGCAA	0.0452
CGCAATAA	0.273
CAAGGAGA	-0.197
AAAACGAT	0.127
CCGAACCG	-0.26

Sequence	PBM E-score
AGCGACAT	-0.0097
ATTATACA	0.19
ACGCTCGG	0.0469
AACGCCCT	-0.152
CGGAGGAG	-0.36
CAACAGCG	-0.0885
CAAATCGC	-0.198
GAGGGACC	-0.299
CTTAAGTC	-0.134
GGGGCCAC	-0.31
GCCGGCAC	0.00694
GGATGCAC	-0.202
AGTTGGTC	-0.0585
ATTCGAAA	0.112
CACGAAAC	0.0111
GGCAAAAC	0.132
CCGTGCCA	0.054
TAGCAGCA	-0.165
CCGACGCG	-0.128
ACATGCTC	-0.062
TAATGGGA	-0.0514
ATATAAGC	0.24
CCTCCAAC	-0.235
ACGATATA	0.196
CACAGAAG	0.0182

Sequence	PBM E-score
TCATCCGA	0.242
GGAAAGAC	-0.12
AGTCCAAG	-0.217
TCTATTAA	0.212
ATAAAAGG	0.0584
GAAATTTA	0.184
GCGACCTA	-0.133
AGGACAAC	0.0452
CCTAAGCG	-0.0966
GCTGGTGA	0.227
GCAATACC	-0.0122
CGACGACA	-0.054
AGGAGTCA	-0.118
ACCACGGC	0.11
CGTTCGAG	0.0678
AATGTCGA	0.139
GGAAGAAC	0.0432
CAACAGTG	0.0248
ACACCCCA	-0.113
ACTATGAG	0.0505
CGATTGAG	-0.0697
GAATTATA	0.0923
CTACTACA	0.0792
ACGACTAC	-0.155
GCTGTGAC	0.281

Sequence	PBM E-score
TCTGTTCA	-0.00976
CTATAGGA	-0.0303
ATCCTCCA	-0.135
ACGTGGCA	0.0549
CCGCCTCG	0.0665
ACCCACGG	-0.215
AGGTTGTA	0.126
CGGGCTTC	-0.347
ACAGGAAC	-0.137
TTCATAAA	0.212
GGCGACGA	-0.204
AAATGCGA	0.0229
GACTTATA	0.152
GCATTGTA	0.047
ATCTCGGA	-0.0515
AGTGTCGA	-0.145
CAATTGTC	0.0392
ACACTACG	0.148
CCTCCCAA	-0.193
ACGCTGCT	-0.22
GAACTAGA	0.114
GGAGGAGA	-0.267
CAAATTGC	0.062
CTTGAATA	0.131
GCTTCTAC	0.00763

Sequence	PBM E-score
AGCAATGG	-0.186
GACCAGTC	-0.247
ATGGTGAG	0.0691
AGGACAGA	-0.184
CCGGTGAC	0.335
ACTAGCAC	-0.258
CTCCGATA	-0.203
AGTTGTAA	0.0542
ATTTTATA	0.321
AAGTAAAG	-0.172
TAGGTAGA	-0.0478
ATTCCCAG	-0.0227
CCTTCAAA	0.166
TTGTCAAA	0.115
GTACTCAC	0.0738
AACCGTCA	0.174
CTGGCGAC	-0.325
AACCTTCG	0.0222
CGTCTCTA	-0.206
ATATGCTA	-0.026
GCAAATAA	0.236
GGATCGCA	-0.0877
CCAGGAGA	-0.262
CATGGAGA	-0.0561
CCTGATAA	0.0577

Sequence	PBM E-score
CCCCTAAA	-0.269
TAACGGTA	0.0366
TACTTTGA	0.145
GGGTCCGA	-0.185
CCTAACAA	0.188
CATCGCTC	-0.0555
CAGGCTGC	-0.135
GTATTAAA	0.243
AAACTTAG	0.0226
ATCTGCCC	-0.326
TCGATACA	0.248
CATAGATA	0.101
TTCGCGAA	0.195
CGGAAAGC	-0.05
CCAAGTGA	0.0744
ATCGCACC	-0.00671
AAGGTTCC	-0.13
GGCGTACC	-0.19
ATTAGGAG	0.0715
CCGATAAC	0.00087
ACAGTGAT	0.233
AATGCGGG	0.0926
ATGGAAGC	0.0741
CAGACATC	-0.0467
GTTTTGAA	0.147

Sequence	PBM E-score
GGCGGTAA	0.0405
AATCGTTA	0.191
TCCACGGA	0.105
ATATGCCC	-0.199
AGGAACTA	-0.0983
ATAGGAAG	-0.0723
ATGCCAGG	-0.278
CGTGATCA	0.143
CTATCATC	0.0729
ACTGAGGG	-0.155
CGGTCCAA	-0.337
ATAAAGCA	0.062
ATATCAAG	0.216
CATACAGG	-0.0907
AGATGTAA	0.27
CCCCTGAG	-0.189
AGTCGTCC	-0.203
ACTGCCAC	-0.0105
AAGCATAC	-0.00158
GTTTTCAA	0.282
GGAGCATA	-0.00076
CCGCCACG	-0.0716
